Test results taken from PubChem BioAssay AID493208 (National Center for Advancing Translational Sciences (NCATS), 2011).
Screen size: about 44,000 compounds; about 340 (0.77%) were called active. Another 5% or so got no clear call; they are omitted. Calls come from the whole dose curve; as a rule, active = well fitted inhibition curve with a large enough effect; inconclusive = small, poorly fitted or top-dose-only effect; inactive = flat fitted curve, though single readings scatter. The list shows a part of the results.

assay: Acumen qHTS Assay for Inhibitors of the mTORC1 Signaling Pathway in MEF (Tsc2-/-, p53-/-) Cells: Sytravon; settings: phospho-rpS6 immunofluorescence/PI, 24 h; series mostly up to 38.3 µM; activity change, negative = inhibition: at the top concentration;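 note: plate controls were DMSO for no effect and rapamycin for full effect; nearly all actives have a fitted effect of over 50% in size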
In short: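 Read-out: phospho-S6 Alexa-488 intensity over PI intensity per well, scored as % active cells using thresholds from rapamycin (7.5 nM) and DMSO controls. Tsc2-/-, p53-/- MEFs exposed to compound for 24 h; PI cell count recorded as viability.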

Activity change, negative = inhibition, inactive:
CCc1ccc(Nc2nc(-c3cc4cccc(OC)c4oc3=O)c(CC)s2)cc1 -10.3%
CCOC(=O)c1ccc(NC(=O)Nc2cc3c(cc2N2CCCCC2)n(CC)c(=O)n3CC)cc1 2.05%
Cc1ccc(NC(=O)C2CCC(CNS(=O)(=O)c3cccs3)CC2)cc1C (configuration not stated) -18.6%
CCOC(=O)C1CCN(C(=O)c2ccc(C)c(NC(=O)c3nsc4ccccc34)c2)CC1 1.1%
CCC(=O)N1c2ccc(S(=O)(=O)CCC(=O)NCc3ccc(OC)cc3)cc2CC1C (configuration not stated) -0.999%
O=S(=O)(Nc1ccc(OC(F)(F)F)cc1)c1ccc(N2CCCCS2(=O)=O)cc1 5.7%
Cc1cc(C)c(S(=O)(=O)NCC(c2ccco2)S(=O)(=O)c2ccccc2)c(C)c1 (configuration not stated) -5.39%
CCc1cccc(C)c1Nc1c(-c2cccs2)nc2ncccn12 -7.89%
O=C(Cn1c(=O)c2ccccc2n(CC(=O)Nc2ccccc2F)c1=O)NCCc1ccccc1 -11.7%
Cc1cc(C)c(NC(=O)CCN2CCCCC2)c(C)c1 2.14%
CC(C)c1ccc(S(=O)(=O)NCc2nc3cccnc3n2Cc2ccc(F)cc2)cc1 -0.588%
CC1=C(C(=O)Nc2cc(C)cc(C)c2)C2(CCCCC2)OC1=O 1.87%
COc1ccc(NC(=O)COCc2cc(-c3ccco3)on2)cc1Cl -2.38%
CCc1ccc(-n2c(=O)c3sc4ccccc4c3n(CC(=O)NC3CCCC3)c2=O)cc1 0.805%
COc1cc(OC)c(NC(=O)CCc2nc(C3=CCN(Cc4cccc(Cl)c4)CC3)no2)cc1Cl -4.14%
COc1ccc(CCNC(=O)CCc2c(C)c3ccc(O)c(C)c3oc2=O)cc1 3.15%
Cc1nc2nc(CNC(=O)OC(C)(C)C)nn2c(C)c1CCC(=O)NCc1ccccc1Cl -6.88%
Nc1nc(N)c(S(=O)(=O)c2ccccc2)c(Nc2ccccc2)n1 4.34%
COc1cccc(C2C(=O)N(C3CCCCC3)CC(=O)N2CCc2ccc(OC)c(OC)c2)c1 (configuration not stated) 10.5%
CCc1ccc2c(c1)c(=O)c(S(=O)(=O)c1ccc(F)cc1)cn2CC(=O)Nc1ccccc1OC 1.35%
COc1ccc(-c2cc(C(=O)Oc3ccc(Br)cc3)c3ccccc3n2)cc1 3.88%
Cc1ccc(NC(=O)c2oc3ccccc3c2NC(=O)C2CCCCC2)cc1 3.48%
CCOC(=O)C1=C(CN(CC)Cc2ccccc2)NC(=O)NC1c1ccc(OC)cc1 (configuration not stated) 5.02%
COC(=O)c1c(-c2ccc(Cl)cc2)noc1N1CCN(c2ccccc2F)CC1 0.755%
CCCCNC(=O)c1ccc2c(c1)NC(=O)C(C(C)C)N2 (configuration not stated) -2.02%
COc1ccc2c(c1)c1c(c(=O)n(-c3ccc(F)c(Cl)c3)c(=O)n1Cc1ccccc1F)n2C 0.864%
COc1ccccc1NC(=O)C(=O)c1cc(C)n(-c2cc(C)cc(C)c2)c1C -0.856%
